From the supplement of paper PMC6206098
± gives the uncertainty stated by the source. The sequences are guide strands of siRNAs; only the seed at positions 2 to 7 varies.

How the values were obtained:
3LL = test: cell viability relative to siNT1 control; higher = less toxic; details: concentration: 10 nM; 96 h; Mus musculus
HeyA8 = test: cell viability relative to lipid-only control; HeyA8 human ovarian and H460 human lung cancer; M565 mouse liver and 3LL mouse lung cancer; siNT1 is a non-toxic control siRNA; higher = less toxic; details: concentration: 10 nM; 96 h; Homo sapiens
Protocol: (§1)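 Arrayed screen of 4096 siRNA duplexes, each carrying one of all possible 6mer seeds at guide-strand positions 2-7 in a fixed neutral 19mer scaffold (constant flanks: U at position 1, then ACAUGUAAACCA, plus a 3' AA overhang). The passenger strand is 2'-O-methylated at positions 1-2 so only the guide strand loads into RISC. Duplexes were reverse-transfected at 10 nM with RNAiMAX in triplicate in 384-well plates; viability was read by CellTiter-Glo ATP content 96 h after transfection. Values are % viability normalised to lipid-only wells (HeyA8, H460, M565) or to siNT1 (3LL).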

H460 = test: as above; details: concentration: 10 nM; 96 h; Homo sapiens
Protocol: as §1

M565 = test: as above; details: concentration: 10 nM; 96 h; Mus musculus
Protocol: as §1
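Wherever cell viability relative to lipid-only control is given: reverse lipid transfection in 384-well plates, in triplicate, of duplexes on a non-toxic 19mer backbone with passenger strand 2′-O-methylated at positions 1 and 2, luminescence viability read-out.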
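Wherever cell viability relative to siNT1 control is given: Luminescence-based viability of cells reverse transfected in 384-well plates with lipid-complexed siRNAs built on a non-toxic 19mer backbone whose passenger strand carries 2′-O-methyl groups at positions 1 and 2, triplicates.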

## UCAGGGCACAUGUAAACCAAA
3LL
  cell viability: 37.1 ± 8.4%
HeyA8
  cell viability: 9.94 ± 0.29%
H460
  cell viability: 21.8 ± 4.7%
M565
  cell viability: 22.4 ± 2.6%

## UUGCAAGACAUGUAAACCAAA
3LL
  cell viability: 79.5 ± 8.6%
HeyA8
  cell viability: 97.3 ± 7.3%
H460
  cell viability: 89.9 ± 14%
M565
  cell viability: 84.9 ± 16%

## UGCCGUAACAUGUAAACCAAA
3LL
  cell viability: 77.8 ± 7.6%
HeyA8
  cell viability: 77.1 ± 3.6%
H460
  cell viability: 66.5 ± 9.9%
M565
  cell viability: 36.3 ± 5.5%

## UUGUAAGACAUGUAAACCAAA
3LL
  cell viability: 74.7 ± 3%
HeyA8
  cell viability: 77.4 ± 1.5%
H460
  cell viability: 48.9 ± 5.9%
M565
  cell viability: 65.6 ± 12%

## UUAGAGUACAUGUAAACCAAA
3LL
  cell viability: 43.7 ± 2.2%
HeyA8
  cell viability: 72.9 ± 2.6%
H460
  cell viability: 61.2 ± 10%
M565
  cell viability: 70 ± 18%

## UUCGAGUACAUGUAAACCAAA
3LL
  cell viability: 77.2 ± 15%
HeyA8
  cell viability: 80.8 ± 5.2%
H460
  cell viability: 75.9 ± 18%
M565
  cell viability: 65.1 ± 6.6%

## UCGUGCAACAUGUAAACCAAA
3LL
  cell viability: 88.1 ± 8.2%
HeyA8
  cell viability: 76.7 ± 6.9%
H460
  cell viability: 92.1 ± 1.5%
M565
  cell viability: 66.5 ± 6.8%

## UUGUGAUACAUGUAAACCAAA
3LL
  cell viability: 43.2 ± 7.1%
HeyA8
  cell viability: 62.2 ± 4.2%
H460
  cell viability: 45.1 ± 4.3%
M565
  cell viability: 45.7 ± 2.8%

## UAGUGUUACAUGUAAACCAAA
3LL
  cell viability: 83.5 ± 3.1%
HeyA8
  cell viability: 61.7 ± 8.4%
H460
  cell viability: 66.7 ± 16%
M565
  cell viability: 12.1 ± 3%

## UUGCUGCACAUGUAAACCAAA
3LL
  cell viability: 36.7 ± 7.2%
HeyA8
  cell viability: 62.4 ± 5.2%
H460
  cell viability: 61.7 ± 2.4%
M565
  cell viability: 6.66 ± 2.5%

## UGCCUUGACAUGUAAACCAAA
3LL
  cell viability: 86.4 ± 16%
HeyA8
  cell viability: 45.2 ± 4.4%
H460
  cell viability: 63.3 ± 9.1%
M565
  cell viability: 42 ± 6.3%

## UUGUUGGACAUGUAAACCAAA
3LL
  cell viability: 11.8 ± 2.4%
HeyA8
  cell viability: 62.4 ± 6%
H460
  cell viability: 42.6 ± 8.1%
M565
  cell viability: 8.03 ± 2.4%

## UUGAAACACAUGUAAACCAAA
3LL
  cell viability: 39 ± 8.4%
HeyA8
  cell viability: 67.7 ± 4.2%
H460
  cell viability: 65.5 ± 0.97%
M565
  cell viability: 54.5 ± 9.6%

## UUUAGCUACAUGUAAACCAAA
3LL
  cell viability: 26.5 ± 1.9%
HeyA8
  cell viability: 67.7 ± 3.7%
H460
  cell viability: 77.5 ± 6%
M565
  cell viability: 71.4 ± 3.8%

## UUAGCACACAUGUAAACCAAA
3LL
  cell viability: 15.6 ± 2.1%
HeyA8
  cell viability: 59.7 ± 3.9%
H460
  cell viability: 55.1 ± 5.1%
M565
  cell viability: 13.1 ± 3.1%

## UGAGUUCACAUGUAAACCAAA
3LL
  cell viability: 55.2 ± 14%
HeyA8
  cell viability: 33.5 ± 10%
H460
  cell viability: 69.2 ± 6.7%
M565
  cell viability: 22.9 ± 4.1%

## UUGACCGACAUGUAAACCAAA
3LL
  cell viability: 61.5 ± 6.6%
HeyA8
  cell viability: 71.9 ± 8.3%
H460
  cell viability: 65.2 ± 9.5%
M565
  cell viability: 47.2 ± 8.9%

## UCCUAGGACAUGUAAACCAAA
3LL
  cell viability: 58.9 ± 18%
HeyA8
  cell viability: 35.7 ± 1.3%
H460
  cell viability: 42 ± 2%
M565
  cell viability: 51.3 ± 3.7%

## UAUUGGGACAUGUAAACCAAA
3LL
  cell viability: 107 ± 9.5%
HeyA8
  cell viability: 52.3 ± 8.2%
H460
  cell viability: 19.4 ± 0.67%
M565
  cell viability: 47.2 ± 18%

## UAUAUUCACAUGUAAACCAAA
3LL
  cell viability: 71.6 ± 17%
HeyA8
  cell viability: 89.8 ± 18%
H460
  cell viability: 82.7 ± 22%
M565
  cell viability: 54.8 ± 1.6%

## UGGACUCACAUGUAAACCAAA
3LL
  cell viability: 23.4 ± 5.4%
HeyA8
  cell viability: 33.4 ± 4.8%
H460
  cell viability: 45.9 ± 5.5%
M565
  cell viability: 6.11 ± 0.19%

## UCUGAGUACAUGUAAACCAAA
3LL
  cell viability: 75.8 ± 12%
HeyA8
  cell viability: 91.7 ± 22%
H460
  cell viability: 63.2 ± 5.1%
M565
  cell viability: 28.3 ± 10%

## UAACGUCACAUGUAAACCAAA
3LL
  cell viability: 75.6 ± 6.5%
HeyA8
  cell viability: 75.4 ± 4.4%
H460
  cell viability: 68.6 ± 5%
M565
  cell viability: 28.7 ± 3.5%

## UAAUGAUACAUGUAAACCAAA
3LL
  cell viability: 43.7 ± 3.6%
HeyA8
  cell viability: 71.3 ± 3.1%
H460
  cell viability: 70.2 ± 3.6%
M565
  cell viability: 79.3 ± 6.5%

## UCAAUUAACAUGUAAACCAAA
3LL
  cell viability: 97.9 ± 8.3%
HeyA8
  cell viability: 87.1 ± 1.1%
H460
  cell viability: 67.6 ± 16%
M565
  cell viability: 69.9 ± 12%

## UCGUCGGACAUGUAAACCAAA
3LL
  cell viability: 59.1 ± 17%
HeyA8
  cell viability: 51 ± 2.4%
H460
  cell viability: 56.9 ± 8.8%
M565
  cell viability: 60.5 ± 6.8%

## UUGUCUGACAUGUAAACCAAA
3LL
  cell viability: 55 ± 9.1%
HeyA8
  cell viability: 91.7 ± 4.1%
H460
  cell viability: 66.2 ± 8.7%
M565
  cell viability: 39.8 ± 2.7%

## UCAACGUACAUGUAAACCAAA
3LL
  cell viability: 88.6 ± 8.7%
HeyA8
  cell viability: 77.2 ± 3%
H460
  cell viability: 57.72 ± 0.37%
M565
  cell viability: 92.6 ± 11%

## UUCUGUCACAUGUAAACCAAA
3LL
  cell viability: 37.9 ± 4.1%
HeyA8
  cell viability: 65.4 ± 7.5%
H460
  cell viability: 41.4 ± 1.8%
M565
  cell viability: 26.2 ± 5.2%
